Structures can show the parent of a compound that is named as a salt. The list shows a part of the results. Cut-off read from the data, not from the text of the source: active = 0.5 or less and inactive = the rest. Repeats are few or missing, and single values can be far off.
What follows are compounds tested on HeLa VPS33A R498W KI + HA-SDC1-FLAG (assay: relative GAG core protein HA-SDC1 amount per cell number vs DMSO (fraction of DMSO); HeLa model of a glycosaminoglycan (GAG) storage disease; KI is knock-in and KO knock-out; SDC1 is syndecan 1; higher = more SDC1 (GAG core protein)). Details: 50 µM; 24 h.
`C[C@]12C=CC(=O)C=C1CC[C@@H]1[C@@H]2[C@@H](O)C[C@@]2(C)[C@H]1CC[C@]2(O)C(=O)CO` [Prednisolone] was tested, and the “relative GAG core protein HA-SDC1 amount per cell number” value was inactive: 1.01.
For `CC(C)n1c(/C=C/C(O)CC(O)CC(=O)O)c(-c2ccc(F)cc2)c2ccccc21` (centres undefined) [Fluvastatin Sodium], the “relative GAG core protein HA-SDC1 amount per cell number” value was inactive: 0.739.
`CCc1c2c(nc3ccc(OC(=O)N4CCC(N5CCCCC5)CC4)cc13)-c1cc3c(c(=O)n1C2)COC(=O)[C@]3(O)CC` [Irinotecan] was tested, and the “relative GAG core protein HA-SDC1 amount per cell number” value was inactive: 0.752.
`CC(=O)Nc1ccccc1` [Acetanilide] was tested, and the “relative GAG core protein HA-SDC1 amount per cell number” value was inactive: 0.892.
In the case of `O=C1Cc2cc(CCN3CCN(c4nsc5ccccc45)CC3)c(Cl)cc2N1` [Ziprasidone HCl], the “relative GAG core protein HA-SDC1 amount per cell number” value was inactive: 1.38.
For `Cn1cncc1[C@@](N)(c1ccc(Cl)cc1)c1ccc2c(c1)c(-c1cccc(Cl)c1)cc(=O)n2C` [Tipifarnib (Zarnestra)], the “relative GAG core protein HA-SDC1 amount per cell number” value was active: 0.344.
In the case of `CCCNC(=O)NS(=O)(=O)c1ccc(Cl)cc1` [Chlorpropamide], the “relative GAG core protein HA-SDC1 amount per cell number” value was inactive: 1.2.
For `COC(=O)[C@@H]1CC2=CC(=O)CC[C@]2(C)[C@@]23O[C@@H]2C[C@@]2(C)[C@@H](CC[C@@]24CCC(=O)O4)[C@H]13` [Epleremone], the “relative GAG core protein HA-SDC1 amount per cell number” value was inactive: 0.938.
`NC[C@H]1O[C@H](O[C@H]2[C@H](O)[C@@H](O[C@H]3O[C@H](CO)[C@@H](O)[C@H](N)[C@H]3O)[C@H](N)C[C@@H]2N)[C@H](O)[C@@H](O)[C@@H]1O` [Kanamycin Sulfate] was tested, and the “relative GAG core protein HA-SDC1 amount per cell number” value was inactive: 1.17.

From the supplement of paper PMC12355420
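Note: HA-SDC1 level read out by In-Cell Western staining with an anti-HA antibody against the N-terminal tag, screening FDA-approved library drugs.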
